The text below walks through data of the antibiotic and cytotoxicity screens of Wong et al. (2023).

This is one part of the list.

The experiment concerns HSkMC (human skeletal muscle cells). Kind of experiment: cytotoxicity call (relative viability < 0.9). To be noted: 10 µM.
For the compound `COc1ccc(S(=O)(=O)Nc2ccc3c(c2)C(=O)N([C@H](C)CO)C[C@@H](C)[C@H](CN(C)C(=O)Nc2ccc4c(c2)OCO4)OCCCC[C@H](C)O3)cc1`, the cytotoxicity call is “inactive”.
Turning to `COc1ccc(S(=O)(=O)N(C)C[C@H]2Oc3ccc(NS(=O)(=O)c4c(C)noc4C)cc3CC(=O)N([C@H](C)CO)C[C@H]2C)cc1`, the cytotoxicity call is “inactive”.
The result for `C[C@H](CO)N1C[C@H](C)[C@H](CN(C)C(=O)Cc2ccccc2)Oc2cc(C#CC3(O)CCCC3)ccc2S1(=O)=O` reads “inactive”.
The result for `COc1ccc(C#Cc2cnc3c(c2)C(=O)N([C@@H](C)CO)C[C@H](C)[C@H](CN(C)C(=O)CN(C)C)O3)cc1` reads “inactive”; that for `O=C(NCCCN1CCOCC1)[C@@H]1[C@@H](CO)[C@@H]2Cn3c(cccc3=O)[C@H]1N2C(=O)C1CCCCC1`, “inactive”.
The result for `C[C@H](CO)N1C[C@H](C)[C@H](CN(C)S(=O)(=O)c2cn(C)cn2)Oc2ncc(C#Cc3ccc(C(F)(F)F)cc3)cc2C1=O` reads “inactive”; that for `C[C@@H]1CN([C@H](C)CO)C(=O)c2cc(NS(=O)(=O)c3cn(C)cn3)ccc2O[C@H]1CN(C)S(=O)(=O)c1cn(C)cn1`, “inactive”.
Take `C[C@H]1CCCCO[C@@H](CN(C)C(=O)C2CCCCC2)[C@@H](C)CN([C@@H](C)CO)C(=O)c2cc(NC(=O)Nc3ccc(F)cc3)ccc2O1`: the cytotoxicity call is “inactive”.
The result for `O=C(C[C@H]1C[C@@H]2c3cc(NS(=O)(=O)c4ccc(F)cc4)ccc3O[C@@H]2[C@H](CO)O1)NCc1ccccn1` reads “inactive”; that for `CO[C@H]1CN(C(=O)c2ccnnc2)[C@H]2COC[C@@H]12`, “inactive”; that for `COc1ccc(NC(=O)N(C)C[C@H]2Oc3c(NC(=O)c4cc(C)nn4C)cccc3C(=O)N([C@@H](C)CO)C[C@H]2C)cc1`, “inactive”.
